Publication PMC4336329 (PLoS ONE, 2015)
Screen size: about 310,000 compounds; about 2,200 (0.71%) showed an effect of 50% or more. The effect is printed as a negative number. Some of the results follow.

Each molecule was assayed against human ether-à-go-go-related gene (hERG) potassium channel (human, UniProt Q12809) (assay: primary screen, population patch clamp on CHO cells stably expressing hERG).
Chain of human ether-à-go-go-related gene (hERG) potassium channel (Q12809 whole entry, looked up): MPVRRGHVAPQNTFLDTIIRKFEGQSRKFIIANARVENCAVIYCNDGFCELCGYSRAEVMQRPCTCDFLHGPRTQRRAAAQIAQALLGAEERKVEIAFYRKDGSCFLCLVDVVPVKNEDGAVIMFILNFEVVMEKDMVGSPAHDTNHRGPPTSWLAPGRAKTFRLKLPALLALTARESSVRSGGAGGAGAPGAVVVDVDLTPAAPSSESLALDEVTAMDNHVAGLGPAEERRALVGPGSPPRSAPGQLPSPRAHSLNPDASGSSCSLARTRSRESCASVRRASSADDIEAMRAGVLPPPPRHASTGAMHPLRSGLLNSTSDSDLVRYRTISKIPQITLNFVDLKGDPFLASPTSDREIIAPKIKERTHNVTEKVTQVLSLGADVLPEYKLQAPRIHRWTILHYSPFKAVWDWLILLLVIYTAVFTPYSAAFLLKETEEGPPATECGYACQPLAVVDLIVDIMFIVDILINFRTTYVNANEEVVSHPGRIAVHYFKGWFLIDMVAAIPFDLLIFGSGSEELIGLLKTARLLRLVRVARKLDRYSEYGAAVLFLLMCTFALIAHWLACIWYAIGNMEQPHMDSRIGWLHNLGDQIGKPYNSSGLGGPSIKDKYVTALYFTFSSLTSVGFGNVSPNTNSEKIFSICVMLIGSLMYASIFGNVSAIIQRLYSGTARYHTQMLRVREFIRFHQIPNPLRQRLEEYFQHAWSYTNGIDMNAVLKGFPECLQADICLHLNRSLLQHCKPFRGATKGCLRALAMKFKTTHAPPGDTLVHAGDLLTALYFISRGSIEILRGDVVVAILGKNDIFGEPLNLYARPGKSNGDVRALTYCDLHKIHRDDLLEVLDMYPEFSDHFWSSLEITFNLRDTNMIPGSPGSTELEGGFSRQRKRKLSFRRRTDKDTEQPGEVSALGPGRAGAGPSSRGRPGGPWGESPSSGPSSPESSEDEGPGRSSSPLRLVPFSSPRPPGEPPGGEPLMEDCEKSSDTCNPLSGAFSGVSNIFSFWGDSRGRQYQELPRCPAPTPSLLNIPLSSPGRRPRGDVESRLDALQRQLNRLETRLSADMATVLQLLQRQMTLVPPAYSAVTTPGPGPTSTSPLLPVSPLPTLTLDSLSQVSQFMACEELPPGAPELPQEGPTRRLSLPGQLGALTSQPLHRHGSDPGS

SMILES	hERG current change (%, negative = inhibition) at 1uM [%]
Br.CN1CCN(CC(=O)c2cc(C(C)(C)C)c(O)c(C(C)(C)C)c2)CC1	7.37
COc1c(C)cc(C(=O)C2CCCN(Cc3cccc(C)n3)C2)cc1C (stereo not shown)	-11
Cn1nnnc1Sc1ncnc2scc(-c3ccc[nH]3)c12	13
Cc1cc(C)c(S(=O)(=O)N2CCN(C(=O)C3COc4ccccc4O3)CC2)c(C)c1 (stereo not shown)	-0.477
O=C(CCn1cccc1)Nc1cc(F)ccc1F	16.9
CCOc1ccc(C2C(C(N)=O)=C(C)Nc3ncnn32)cc1OC (stereo not shown)	3.08
Cc1ccccc1OCC(=O)NCCNC(=O)c1ccccn1	14
O=C1C=C(c2ccc(C(=O)O)cc2)C[C@@H](c2ccc3c(c2)OCO3)C1	10.1
O=C(N/N=C/C(Cl)=C/c1ccc([N+](=O)[O-])cc1)C(=O)Nc1ccccc1C(=O)O	7.43
CC(C)(C)NC(=O)C(c1cccs1)N(C(=O)c1csnn1)c1ccccc1F (stereo not shown)	16.5
O=C(NNC(=O)C1[C@H]2CCCC[C@@H]12)Nc1cccc2ccccc12 (stereo partly shown)	3.75
CCOC(=O)C(=NC(C)CC)NNc1cccc(C(F)(F)F)c1 (stereo not shown)	7.88
Cc1cc(C(F)F)n2nc(C(=O)Nc3sc4c(c3C#N)CCC4)nc2n1	0.413
O=C(Nc1nc(-c2ccncc2)cs1)C1c2ccccc2Oc2ccccc21	13.2
Cc1nn(C(C)C(=O)N2CCCC2)c(=O)c2nn(-c3ccccc3)c(C)c12 (stereo not shown)	6
COc1cc(SC)ccc1C(=O)OCC(=O)NCCNC(=O)COC(=O)c1ccc(SC)cc1OC	15.5
O=C1c2cccc3c(N4CCCCC4)ccc(c23)C(=O)N1c1cccc(O)c1	12.3
COc1ccc(CNC(=O)CN2C(=O)CC(c3ccccc3)=Nc3ccccc32)cc1	4.56
CCOC(=O)C(NC(=O)c1cccc(Cl)c1)(OCc1ccccc1)C(F)(F)F (stereo not shown)	-3.61
Nc1nonc1-c1nc2ccccc2[nH]1	-3.02
Cc1cc(C)c(-c2cc(C(=O)Nc3c(C)n(C)n(-c4ccccc4)c3=O)[nH]n2)c(O)c1	0.804
Cc1cccc(-n2c(C)nc3ccc(Cl)cc3c2=O)c1	6.87

SMILES	hERG current change (%, negative = inhibition) at 1uM [%]
COc1cc(C)ccc1OCc1cc(C(=O)NC(C)Cn2cncn2)no1 (stereo not shown)	15
CCN1CCN(CCNC(=O)c2ccc(/C=C3/Sc4ccccc4N(Cc4cccc(C)c4)C3=O)cc2)CC1	9.62
O=C1CN=C(c2ccccc2)c2cc(Br)ccc2N1	-7.91
O=S(=O)(c1ccc(SCCO)nc1)N1CCOCC1	8.12
COc1cccc(-c2nc(CS(=O)(=O)CC(=O)Nc3cc(OC)ccc3OC)c(C)o2)c1	19.8
CCN(CC(=O)Nc1c(F)cccc1F)C(=O)CN1c2cccc3cccc(c23)S1(=O)=O	7.74
CCCCCc1ccc(-c2cn(Cc3ccc(C)cc3)nn2)cc1	18.5
COc1ccc(-c2ccc3c(c2)S(=O)(=O)c2cccc(C(=O)NC[C@@H]4CCCO4)c2C3=O)cc1OC	12.2
CC1CC(C)CN(C(=O)C2CCN(S(=O)(=O)c3cccs3)CC2)C1 (stereo not shown)	7.1
COc1ccc(NC(=O)c2ccc(-c3csc(C)n3)cc2)cc1	15.2
C[C@@H]1C=C[C@](Cc2ccccc2)(C(=O)O)N1C(=O)c1ccccc1	15.4
Cc1nccn1CCOc1ccc(Cl)cc1.O=C(O)C(=O)O	4.54
CCOc1ccc(CCNC(=O)CSc2cc(=O)n(C)c3ccccc23)cc1OCC	8.52
CN1CCN(C(=O)c2cc3c(s2)-c2ccccc2S(=O)(=O)C3)CC1	4.62
CCCCOc1ccc(C2NC(=O)NC(C)=C2C(C)=O)cc1OCC (stereo not shown)	9.83
c1ccc(CCCCN2C(Nc3ccccc3)=NC[C@@H]2Cc2ccccc2)cc1	-39.7
CN(C)C(=O)C12CCC(C)(C(=O)C1Br)C2(C)C (stereo not shown)	14.5
CCC(NC(=O)c1cc(COc2cncc(Cl)c2)on1)c1ccc(C)cc1 (stereo not shown)	7.23
CCCn1c(CNC(=O)Cc2ccccc2)nc2ccccc21	-4.41
CC(C)c1ccc(Nc2nnns2)cc1	14.3
CN1CCC(CNC(=O)Nc2csc3ccccc23)CC1	9.1
